According to patent US20130316901A1 (priority 2011, published 2013):
Where two headings read alike, the source gives them in different places.

Tested on: Phytophthora infestans
Type: in vivo
Conditions: tomatoes, preventive spray, evaluated 3 days after inoculation

For Cn1c(=O)c2sc3c(=O)n(C)c(=O)c3sc2c1=O [(I-1), 2,6-dimethyl-1H,5H-[1,4]dithiino[2,3-c:5,6-c′]dipyrrole-1,3,5,7(2H,6H)-tetrone], the “Efficacy in % found” value (50 ppm a.i.) was 8% and the “Efficacy in % found” value (100 ppm a.i.) was 30%.

For CCOC(=O)C1CC(=O)C(=C(O)C2CC2)C(=O)C1 (stereo not drawn) [C-12.27, trinexapac-ethyl], the “Efficacy in % found” value (500 ppm a.i.) was 60%.
